Laboratory results as given in PMC12820563.
The list shows a part of the results. The list includes weakly bound sequences.

molecular target: T1, MBP-FoxP3dN (UniProt Q99JB6); assay: PD-seq (MBP pull-down with sequencing); settings: 20 mM Tris-HCl pH 7.5, 100 mM NaCl, 1.5 mM MgCl2, 0.4 uM protein, 0.1 uM dsDNA library, 30 min, room temperature, amylose pull-down; high values mean tight binding; double strand, one strand shown
T1 sequence: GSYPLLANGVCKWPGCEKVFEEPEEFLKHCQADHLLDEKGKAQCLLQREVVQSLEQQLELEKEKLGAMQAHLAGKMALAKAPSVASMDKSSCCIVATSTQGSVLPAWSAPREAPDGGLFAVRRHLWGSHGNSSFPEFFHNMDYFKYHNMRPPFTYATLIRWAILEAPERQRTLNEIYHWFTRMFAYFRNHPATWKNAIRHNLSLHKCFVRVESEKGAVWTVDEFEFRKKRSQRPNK

| Sequence | binding signal (RPM ratio (pull-down/input)) |
| --- | --- |
| GATGATTGTTCTCCCAGCTGATGAATTTTCCAGCTCGAGTAAACAAATTTTCCTAATCTTTCTGTTCAAGCGCCATCTAC | 0.181 |
| GATGATTGTTCTCCCAGCTGATGAATTTGGGAAATCGAGTAAACAAATTTTCCTAATCTTTCTGTTCAAGCGCCATCTAC | 0.392 |
| GATGATTGTTCTCCCAGCTGATGAATTAGATGACTCGAGTAAACAAATTTTCCTAATCTTTCTGTTCAAGCGCCATCTAC | 1.2 |
| GATGATTGTTCTCCCAGCTGATGAATTCTTCATGTCGAGTAAACAAATTTTCCTAATCTTTCTGTTCAAGCGCCATCTAC | 0.297 |
| GATGATTGTTCTCCCAGCTGATGAATTCTTTCATTCGAGTAAACAAATTTTCCTAATCTTTCTGTTCAAGCGCCATCTAC | 0.253 |
| GATGATTGTTCTCCCAGCTGATGAATTTCTTACATCGAGTAAACAAATTTTCCTAATCTTTCTGTTCAAGCGCCATCTAC | 0.278 |
| GATGATTGTTCTCCCAGCTGATGAATTCCCAAGGTCGAGTAAACAAATTTTCCTAATCTTTCTGTTCAAGCGCCATCTAC | 0.171 |
| GATGATTGTTCTCCCAGCTGATGAATTAGGCACCTCGAGTAAACAAATTTTCCTAATCTTTCTGTTCAAGCGCCATCTAC | 0.988 |
| GATGATTGTTCTCCCAGCTGATGAATTCCATAGCTCGAGTAAACAAATTTTCCTAATCTTTCTGTTCAAGCGCCATCTAC | 0.306 |
| GATGATTGTTCTCCCAGCTGATGAATTTCCATGTTCGAGTAAACAAATTTTCCTAATCTTTCTGTTCAAGCGCCATCTAC | 0.453 |
| GATGATTGTTCTCCCAGCTGATGAATTTTCAAATTCGAGTAAACAAATTTTCCTAATCTTTCTGTTCAAGCGCCATCTAC | 0.224 |
| GATGATTGTTCTCCCAGCTGATGAATTGTCAAGCTCGAGTAAACAAATTTTCCTAATCTTTCTGTTCAAGCGCCATCTAC | 0.338 |
| GATGATTGTTCTCCCAGCTGATGAATTATCGAAATCGAGTAAACAAATTTTCCTAATCTTTCTGTTCAAGCGCCATCTAC | 0.382 |
| GATGATTGTTCTCCCAGCTGATGAATTGTGCTCTTCGAGTAAACAAATTTTCCTAATCTTTCTGTTCAAGCGCCATCTAC | 0.852 |
| GATGATTGTTCTCCCAGCTGATGAATTCCACAGCTCGAGTAAACAAATTTTCCTAATCTTTCTGTTCAAGCGCCATCTAC | 0.275 |
| GATGATTGTTCTCCCAGCTGATGAATTGCTCATATCGAGTAAACAAATTTTCCTAATCTTTCTGTTCAAGCGCCATCTAC | 0.658 |
| GATGATTGTTCTCCCAGCTGATGAATTCACCCAATCGAGTAAACAAATTTTCCTAATCTTTCTGTTCAAGCGCCATCTAC | 0.262 |
| GATGATTGTTCTCCCAGCTGATGAATTGCTACTCTCGAGTAAACAAATTTTCCTAATCTTTCTGTTCAAGCGCCATCTAC | 0.823 |
| GATGATTGTTCTCCCAGCTGATGAATTGGCCCATTCGAGTAAACAAATTTTCCTAATCTTTCTGTTCAAGCGCCATCTAC | 0.377 |
| GATGATTGTTCTCCCAGCTGATGAATTTGACCGGTCGAGTAAACAAATTTTCCTAATCTTTCTGTTCAAGCGCCATCTAC | 0.206 |
| GATGATTGTTCTCCCAGCTGATGAATTACTGCAGTCGAGTAAACAAATTTTCCTAATCTTTCTGTTCAAGCGCCATCTAC | 0.609 |

| Sequence | binding signal (RPM ratio (pull-down/input)) |
| --- | --- |
| GATGATTGTTCTCCCAGCTGATGAATTGCTAAACTCGAGTAAACAAATTTTCCTAATCTTTCTGTTCAAGCGCCATCTAC | 0.535 |
| GATGATTGTTCTCCCAGCTGATGAATTGCTCTAGTCGAGTAAACAAATTTTCCTAATCTTTCTGTTCAAGCGCCATCTAC | 0.382 |
| GATGATTGTTCTCCCAGCTGATGAATTATTGGAATCGAGTAAACAAATTTTCCTAATCTTTCTGTTCAAGCGCCATCTAC | 0.313 |
| GATGATTGTTCTCCCAGCTGATGAATTGGATCCGTCGAGTAAACAAATTTTCCTAATCTTTCTGTTCAAGCGCCATCTAC | 0.219 |
| GATGATTGTTCTCCCAGCTGATGAATTATATCAGTCGAGTAAACAAATTTTCCTAATCTTTCTGTTCAAGCGCCATCTAC | 0.471 |
| GATGATTGTTCTCCCAGCTGATGAATTGGCGCAATCGAGTAAACAAATTTTCCTAATCTTTCTGTTCAAGCGCCATCTAC | 3.12 |
| GATGATTGTTCTCCCAGCTGATGAATTGTGATCCTCGAGTAAACAAATTTTCCTAATCTTTCTGTTCAAGCGCCATCTAC | 1.17 |
| GATGATTGTTCTCCCAGCTGATGAATTCTGCGATTCGAGTAAACAAATTTTCCTAATCTTTCTGTTCAAGCGCCATCTAC | 1.64 |
| GATGATTGTTCTCCCAGCTGATGAATTCGATGTCTCGAGTAAACAAATTTTCCTAATCTTTCTGTTCAAGCGCCATCTAC | 3.27 |
| GATGATTGTTCTCCCAGCTGATGAATTACACGGATCGAGTAAACAAATTTTCCTAATCTTTCTGTTCAAGCGCCATCTAC | 0.302 |
| GATGATTGTTCTCCCAGCTGATGAATTTGTTGACTCGAGTAAACAAATTTTCCTAATCTTTCTGTTCAAGCGCCATCTAC | 7.34 |
| GATGATTGTTCTCCCAGCTGATGAATTAGAATCATCGAGTAAACAAATTTTCCTAATCTTTCTGTTCAAGCGCCATCTAC | 0.532 |
| GATGATTGTTCTCCCAGCTGATGAATTTGCCACGTCGAGTAAACAAATTTTCCTAATCTTTCTGTTCAAGCGCCATCTAC | 1.2 |
| GATGATTGTTCTCCCAGCTGATGAATTTAATCGGTCGAGTAAACAAATTTTCCTAATCTTTCTGTTCAAGCGCCATCTAC | 0.308 |
| GATGATTGTTCTCCCAGCTGATGAATTGCAGTACTCGAGTAAACAAATTTTCCTAATCTTTCTGTTCAAGCGCCATCTAC | 0.876 |
| GATGATTGTTCTCCCAGCTGATGAATTTTCGAGGTCGAGTAAACAAATTTTCCTAATCTTTCTGTTCAAGCGCCATCTAC | 0.221 |
| GATGATTGTTCTCCCAGCTGATGAATTAACAAGTTCGAGTAAACAAATTTTCCTAATCTTTCTGTTCAAGCGCCATCTAC | 0.391 |
| GATGATTGTTCTCCCAGCTGATGAATTATGGTTCTCGAGTAAACAAATTTTCCTAATCTTTCTGTTCAAGCGCCATCTAC | 1.18 |
| GATGATTGTTCTCCCAGCTGATGAATTGAGACGGTCGAGTAAACAAATTTTCCTAATCTTTCTGTTCAAGCGCCATCTAC | 0.242 |
| GATGATTGTTCTCCCAGCTGATGAATTGAATAGGTCGAGTAAACAAATTTTCCTAATCTTTCTGTTCAAGCGCCATCTAC | 0.32 |
| GATGATTGTTCTCCCAGCTGATGAATTTCTACCATCGAGTAAACAAATTTTCCTAATCTTTCTGTTCAAGCGCCATCTAC | 0.265 |

| Sequence | binding signal (RPM ratio (pull-down/input)) |
| --- | --- |
| GATGATTGTTCTCCCAGCTGATGAATTCGATTGCTCGAGTAAACAAATTTTCCTAATCTTTCTGTTCAAGCGCCATCTAC | 3.32 |
| GATGATTGTTCTCCCAGCTGATGAATTGACACCATCGAGTAAACAAATTTTCCTAATCTTTCTGTTCAAGCGCCATCTAC | 0.744 |
| GATGATTGTTCTCCCAGCTGATGAATTCCCGTCGTCGAGTAAACAAATTTTCCTAATCTTTCTGTTCAAGCGCCATCTAC | 0.373 |
| GATGATTGTTCTCCCAGCTGATGAATTAGTCTATTCGAGTAAACAAATTTTCCTAATCTTTCTGTTCAAGCGCCATCTAC | 1.33 |
| GATGATTGTTCTCCCAGCTGATGAATTGTGAGGATCGAGTAAACAAATTTTCCTAATCTTTCTGTTCAAGCGCCATCTAC | 0.49 |
| GATGATTGTTCTCCCAGCTGATGAATTCTTACAATCGAGTAAACAAATTTTCCTAATCTTTCTGTTCAAGCGCCATCTAC | 0.346 |
| GATGATTGTTCTCCCAGCTGATGAATTCCAAGATTCGAGTAAACAAATTTTCCTAATCTTTCTGTTCAAGCGCCATCTAC | 0.239 |
| GATGATTGTTCTCCCAGCTGATGAATTCAGAAGATCGAGTAAACAAATTTTCCTAATCTTTCTGTTCAAGCGCCATCTAC | 0.184 |
| GATGATTGTTCTCCCAGCTGATGAATTGGTGTAGTCGAGTAAACAAATTTTCCTAATCTTTCTGTTCAAGCGCCATCTAC | 1.41 |
| GATGATTGTTCTCCCAGCTGATGAATTCATTCTCTCGAGTAAACAAATTTTCCTAATCTTTCTGTTCAAGCGCCATCTAC | 0.284 |
| GATGATTGTTCTCCCAGCTGATGAATTACCTGGTTCGAGTAAACAAATTTTCCTAATCTTTCTGTTCAAGCGCCATCTAC | 0.253 |
| GATGATTGTTCTCCCAGCTGATGAATTCCTTGGGTCGAGTAAACAAATTTTCCTAATCTTTCTGTTCAAGCGCCATCTAC | 0.233 |
| GATGATTGTTCTCCCAGCTGATGAATTAGGTATGTCGAGTAAACAAATTTTCCTAATCTTTCTGTTCAAGCGCCATCTAC | 1.85 |
| GATGATTGTTCTCCCAGCTGATGAATTCGGTATATCGAGTAAACAAATTTTCCTAATCTTTCTGTTCAAGCGCCATCTAC | 2.02 |
| GATGATTGTTCTCCCAGCTGATGAATTAGGTGAATCGAGTAAACAAATTTTCCTAATCTTTCTGTTCAAGCGCCATCTAC | 0.334 |
| GATGATTGTTCTCCCAGCTGATGAATTGGACGACTCGAGTAAACAAATTTTCCTAATCTTTCTGTTCAAGCGCCATCTAC | 0.259 |
| GATGATTGTTCTCCCAGCTGATGAATTTATCTTCTCGAGTAAACAAATTTTCCTAATCTTTCTGTTCAAGCGCCATCTAC | 0.765 |
| GATGATTGTTCTCCCAGCTGATGAATTGAATTAGTCGAGTAAACAAATTTTCCTAATCTTTCTGTTCAAGCGCCATCTAC | 0.767 |
| GATGATTGTTCTCCCAGCTGATGAATTACATGTATCGAGTAAACAAATTTTCCTAATCTTTCTGTTCAAGCGCCATCTAC | 1.16 |
| GATGATTGTTCTCCCAGCTGATGAATTTTGATGGTCGAGTAAACAAATTTTCCTAATCTTTCTGTTCAAGCGCCATCTAC | 1.51 |
| GATGATTGTTCTCCCAGCTGATGAATTTGTTGCTTCGAGTAAACAAATTTTCCTAATCTTTCTGTTCAAGCGCCATCTAC | 6.86 |
